We go through 84 variants from the RNAGym collection of RNA variant scans (doi:10.1093/nar/gkz1192).

B1: CPEB3 Ribozyme (parent)
chain: UAACAGGGGGCCACAGCAGAAGCGUUCACGUCGCAGCCCCUGUCAGAUUCUGGUGAAUCUGCGAAUUCUGCUGUAUAUCUC

The source gives no read counts; variants with many changes may rest on few reads.

The variants in this data set derive from B1. The data set can be described thus: self-cleavage, relative activity (ratio to wild type); higher = more cleavage; in vitro, sequencing. Summed up: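 Libraries of CPEB3 self-cleaving ribozyme mutants came from rounds of error-prone PCR and carried barcodes, which DNA sequencing matched to variants. In vitro transcription used T7 RNA polymerase at 37°C for 5 hours, with a further 15 min in DNase I before EDTA stopped the reaction; the ribozymes cleaved during both steps. The RNA was reverse transcribed with template switching and sequenced on Illumina. Relative activity is the cleaved/total read fraction of a variant divided by that of the unmutated ribozyme, averaged over three batches with at least 5 reads.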
Regarding A3G A35U G52C, the self-cleavage is 0.68. With A3G A21G U26A U43A U54C the figure was 0.09; with A3G A45U A47G U48C U67C, 0.28.

Regarding A3G A15C C23U U41C U69A, the self-cleavage was found to be 0.62.

With A3G A13U U49C C62G U78C, the self-cleavage was 0.29. With A3G A21U U41A U67C U78A the figure was 0.03; with A3G A45G U67C, 0.3; with A3G A35G A45G U76C U80C, 1.22. With A3G A45G A64U the figure was 0.27; with A3G A21G G30U U58C, 0.07.

Turning to A3G A20U A35G A47G, the self-cleavage worked out at 0.69. With A3G A20G G55A A65G U72A the figure was 0.21. With A3G A57U U60C U76A the figure was 0.32. In the case of A3G A18U U31A C68U U80C, the self-cleavage was found to be 0.43. With A3G A45G U54C C81U the figure was 1.01. With A3G A21G A56U the figure was 0.29.

A3G A15G A20U U25C U26C U31C U54C: the self-cleavage is 0.41. With A3G A18G A21G U31C the figure was 0.67. Regarding A3G A28U U41A U48G A56U, the self-cleavage was determined as 0.11.

Turning to A3G A15U A18U A20U C29U G70C U76C, the self-cleavage was 0.18. With A3G A21C U67C U78C the figure was 0.07. With A3G A13U G19U A47G the figure was 0.14; with A3G A20G A35G U80A, 1.32; with A3G A21G U41A U51A G63A A64G, 0.07. For A3G A18G U51C A56G U58C U80A, the self-cleavage amounted to 0.09. With A3G A18U A57G the figure was 0.47; with A3G A35G U48C U76A, 1.26. For the variant A3G A13G U25C G42A U54A U60A, the self-cleavage stood at 0.13. With A3G A28G U60C the figure was 0.43.

In the case of A3G A15U U31C, the self-cleavage stood at 0.67. Take A3G A28G C29G A56U A65G: the self-cleavage stood at 0.12. With A3G A13G U58A A65U U72A U74C the figure was 0.18; with A3G A18G U72C, 0.7.

On to A3G A18G U72G, for which the self-cleavage was found to be 0.49. With A3G A18C G30A U60A U67C U72G the figure was 0.04. With A3G A13G C40A U43G U67C U69C U74C the figure was 0.04; with A3G A18C U76A, 0.47. With A3G A18U A20G A28G G30A C32A U69A the figure was 0.26; with A3G A28U A35G U58A C68A, 0.47. Regarding A3G A18U G36A U67G, the self-cleavage was 0.07. With A3G A20G C23A U54C C68U U74A the figure was 0.06; with A3G A15G U51C G52C A56G, 0.61.

A3G C4U U66A: the self-cleavage was 0.74. Consider A3G A15U U72A, for which the self-cleavage stood at 0.87. With A3G A20G A35G the figure was 1.16. As for A3G A13U U31C C32G U41C A56G U69A, the self-cleavage is 0.2. With A3G A21G C62U the figure was 0.38; with A3G A20G U74A A75G, 1.15; with A3G A13U A20G G36C U43C U58C, 0.1. With A3G A18U A20G A28G U49A the figure was 0.61; with A3G A35G A47G U60C, 0.47; with A3G A28U C34U C62U U67C, 0.15. With A3G A56U U69A the figure was 0.55; with A3G A18U U26C A65G, 0.42. Regarding A3G A15U C23A U41A U43C U54C U67C, the self-cleavage is 0.07.

Regarding A3G A13G G30U A35C U49C, the self-cleavage was 0.06. With A3G A20G U49A A64G the figure was 0.43; with A3G A47G U49C U67A, 0.09; with A3G A18G A35C U48C U49C U72A, 0.12.

As to A3G A47U U48C U60C U69C, the self-cleavage is 0.27. With A3G A13U A18G A45U U51A A64G U80G the figure was 0.24; with A3G A28U G46A U76C U78C, 0.27.

In the case of A3G A21U A35U U49A U54C A64G, the self-cleavage is 0.06.

For A3G A64U U80C, the self-cleavage was 0.4. As for A3G A13U G19A A47U, the self-cleavage came to 0.4. With A3G A18G A35G U49C A56U A64U the figure was 0.28; with A3G A13G U31A G46A U69C U72C U78C, 0.13; with A3G A15U A47G G53A A57G A75G, 0.57. With A3G A20G A21U A28G G30A U67C the figure was 0.09; with A3G A13U U26A G30A U41C A57U U67C, 0.06; with A3G A15U G19U U43C U51A A64G U72C, 0.22.

Take A3G A28G G33C U54C: the self-cleavage turned out to be 0.12. With A3G A28G C44G A45G U66C U78A the figure was 0.04; with A3G A15G A20G A35G U48C U66C, 0.53. With A3G A20G U60C U80C the figure was 0.57; with A3G A65G U72C, 0.62.

A3G A15G U67C U74C U78C: the self-cleavage is 0.27. With A3G A15U A64G A65G C68U U69A U74C the figure was 0.06. With A3G C4U A13G U51A the figure was 0.35; with A3G A13U U58C, 0.32; with A3G A15U U48C U80C, 0.72.

Regarding A3G A18U A28G U48C U51C A57U, the self-cleavage came to 0.13. With A3G A28U U72C the figure was 0.73; with A3G A35U A65G U72C, 0.18.
